Over roughly 33,000 sequences, “E-score (-0.5 to 0.5)” has its median near -0.012; the highest 2% begin near 0.29. The list shows a part of the results.
target: T1, Ybr033w (UniProt P38073); assay: PBM E-score (8-mer binding enrichment) (E-score (-0.5 to 0.5)); higher = stronger / more preferred TF binding; most listed sequences are background and not binding sites; settings: protein concentration: 200 nM; construct: GST-full length
T1 sequence: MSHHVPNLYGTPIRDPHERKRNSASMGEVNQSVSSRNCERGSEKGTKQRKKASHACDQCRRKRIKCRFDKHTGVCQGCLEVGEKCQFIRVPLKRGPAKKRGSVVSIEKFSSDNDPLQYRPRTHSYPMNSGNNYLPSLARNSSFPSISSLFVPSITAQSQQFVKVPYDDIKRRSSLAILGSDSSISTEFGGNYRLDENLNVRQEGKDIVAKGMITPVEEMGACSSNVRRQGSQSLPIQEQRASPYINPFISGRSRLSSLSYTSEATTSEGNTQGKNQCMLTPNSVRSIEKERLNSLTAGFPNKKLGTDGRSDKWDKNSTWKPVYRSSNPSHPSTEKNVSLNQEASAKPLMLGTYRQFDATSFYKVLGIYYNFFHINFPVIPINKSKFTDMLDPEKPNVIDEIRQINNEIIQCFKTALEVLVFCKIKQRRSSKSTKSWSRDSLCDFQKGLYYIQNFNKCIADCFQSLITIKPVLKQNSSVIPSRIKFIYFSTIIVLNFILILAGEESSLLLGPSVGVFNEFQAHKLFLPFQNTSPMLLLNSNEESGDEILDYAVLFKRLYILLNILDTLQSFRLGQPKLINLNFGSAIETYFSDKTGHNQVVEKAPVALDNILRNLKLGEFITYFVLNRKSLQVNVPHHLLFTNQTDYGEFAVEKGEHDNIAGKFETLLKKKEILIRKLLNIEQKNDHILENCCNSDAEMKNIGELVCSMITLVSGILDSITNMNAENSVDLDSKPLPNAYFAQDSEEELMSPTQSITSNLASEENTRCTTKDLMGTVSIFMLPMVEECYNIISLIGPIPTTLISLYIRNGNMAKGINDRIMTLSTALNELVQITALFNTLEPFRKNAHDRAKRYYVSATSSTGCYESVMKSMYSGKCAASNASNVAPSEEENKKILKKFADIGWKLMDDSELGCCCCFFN
Procedure, shortened: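 For each ungapped eight-base word taken together with its reverse complement, the Universal PBM Analysis Suite assigned an E-score. Binding data came from GST-tagged yeast transcription factors, applied at about 100-200 nM, on universal all-10-mer Agilent arrays made double-stranded by primer extension. Fluorescent anti-GST marked bound protein, and scans were normalised with masliner.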

Sequence	PBM E-score
ACGAGCAC	-0.159
AGAAATTG	0.281
GGCCTATA	-0.198
CCATCGCA	-0.117
CTACTCTC	-0.122
ATACGCTC	0.0886
AGTGCGGC	-0.034
AATTTTAG	-0.00018
ATAGCCCC	-0.34
GCCAAGCA	-0.0454
CAGATCAA	-0.1
CCATCAAA	0.134
GTATCATA	0.21
CTGGACTC	-0.0664
AAGCCTTC	-0.214
CGGTGAAG	-0.19
ACGTCAGA	-0.144
CCTTCCCA	-0.094
AGTGGGAT	0.0917
AAGACCCA	-0.318
GCACACGC	-0.0899
AAATAACA	0.11
CTAATACA	0.129
GATACGGC	-0.173
TAATCTAA	0.236

Sequence	PBM E-score
CCAGAAGC	-0.0153
ACATTACT	0.173
GAGTAATA	0.334
AGACTCTC	-0.00792
CCATTAAC	0.163
TCGTGGAA	0.23
CGAGATTA	0.182
AAGAAGCC	0.134
CTTCACAC	0.154
ATAGTAGG	0.0146
AGGTTCAA	0.209
CTGTGCGC	-0.0301
TACCTAAA	0.185
GGGCGGAC	-0.276
ATAACTGA	0.123
TGGCACAA	-0.0455
GTTGAAAC	0.0194
CATCTGCG	-0.0635
CGTTTTGA	0.0382
AGTTGAAA	0.129
CCAGTGGA	-0.101
CCGACAAG	-0.00476
ATATGTGA	0.152
CCCTCTCC	-0.391
CTCCGGGA	-0.00229

Sequence	PBM E-score
AGATGCGA	-0.0333
CCAAGAGA	-0.00974
ACCTCGGA	0.0486
AAGCGAGA	-0.0861
GACCCGGC	-0.149
GCGGCACA	-0.2
GGTTCGGA	-0.196
CACGTTGA	0.068
TCTACAGA	0.0158
ATTTAACC	0.21
GTTTAGCA	0.0173
ATGAGCGA	0.0554
AGCAAACG	-0.215
ACCTAAGG	-0.177
ATGGGATG	-0.13
CTGGCACA	-0.127
ATTTTCGC	0.106
AATAGCAC	-0.215
GCGTAGTA	-0.147
CAAATGAC	-0.0187
GTCATCAA	-0.0385
AACTCAAC	0.155
GCCAGGCC	-0.257
CACTTGTC	-0.0719
GGGCTTTA	-0.186

Sequence	PBM E-score
ACGCTGAA	-0.0284
CTAGCCGA	-0.0763
GCGCCTCC	-0.102
TAACTCCA	0.0862
AAGACCGT	-0.131
CTTATGGC	-0.0697
GTCCAACA	0.0495
CTCGCTGC	-0.0818
AGTCCCGA	-0.283
AACGTCAT	0.0247
AGTTAGGC	0.0352
AGCATCAA	0.134
ACGTCCGG	-0.225
CGAGACCG	-0.0824
GGCAATAC	0.114
GCCTTCGA	-0.0379
AAAAGATA	0.206
CCATCCCG	-0.331
CTTATCCA	0.0666
ACCATGGC	-0.0531
GATTTGCA	0.0485
AACCGATA	0.198
TATCTCAA	0.32
AACTCCTG	-0.133
ACATCTAG	0.136

Sequence	PBM E-score
ATCAACAC	0.093
CTTCATAC	0.0503
CTGAAAGA	0.0365
CCGTGCGA	-0.0462
TCTAGACA	0.102
AAGCAGAC	-0.13
AGTGGAAA	0.146
ACGTAAGA	0.0618
GACTCGAA	-0.0703
TAATTCAA	0.21
ATCGGGCC	-0.322
CTGTCGCC	-0.151
GCGAGTCC	-0.202
CTTGAGCC	-0.0801
AATCAACA	0.274
CGCCTGGA	-0.0495
GAGCTCTA	-0.173
CTGTCAAA	0.0976
ATAGGCAT	-0.049
ACTACTAT	0.328
GTCACACA	-0.0431
GATGGCGC	-0.192
CGTGGATC	-0.066
AAATGGGA	-0.0448
CAAATTGG	0.275

Sequence	PBM E-score
AGACGGCC	-0.248
GCGAAAAA	0.153
CATCTAAG	-0.0174
AGACCTAC	-0.016
TCGATAAA	0.167
CACTTTGG	-0.00968
GCCTTCAC	-0.111
AGGGGTTA	-0.198
GGCTTGAA	-0.0336
CCAACCCG	-0.12
AACATGCA	0.16
AGACCCTG	-0.13
GGTTTTAA	0.212
TAATCGAA	0.125
CCTAGCTC	-0.0965
CAAGATGG	-0.0299
CCACTGCA	-0.149
GTGCTTTA	0.0785
CCTTTGCC	-0.204
AATTCGTA	0.139
GAGAGCGA	-0.0834
CACACATG	-0.0642
GGTGTGAA	0.228
CCTAATAG	0.0136
ACATTAGA	0.0894

Sequence	PBM E-score
CGTTGCAG	-0.118
AATGGCGA	0.0772
ACACCGTG	-0.29
CCGGTTGC	0.0373
ATATAGAG	-0.0546
CAGAATCG	0.0472
ACCTCCTA	-0.101
AGTTACAC	0.224
GCAGGATA	-0.103
AGTTGGAT	0.288
CGACATAC	-0.124
GACGGCAC	-0.147
GTAAAGTA	0.174
GCACGACC	-0.145
CCAATGTA	0.0738
AACCAGAG	-0.0719
CAAGTGTC	0.00092
AAGCGGGT	-0.0734
ATTCCCTC	0.0513
GAACAGAA	0.0638
CCTTAAGA	-0.0583
AGCCGGAC	-0.18
CGCAGGTA	0.0594
CGCCCCCC	-0.434
GGGGAGAA	-0.101

Sequence	PBM E-score
CCGGTTAA	0.0993
CGTTACTC	-0.102
GACCCGAC	-0.257
TATCATGA	0.115
ACCTAGAA	0.131
CCAAACGG	-0.136
ACCTTATA	0.146
GCCTTCCA	-0.146
AATTGGCC	-0.129
ATTTATAC	0.278
CTCGGCCA	0.00302
AAAGTTTG	0.239
ATACAGCG	-0.0516
CTTATAAC	0.186
GCTCAGTA	0.0903
ACGAGTAA	0.266
CTACCCAC	-0.162
ACTGCTGG	-0.135
CGTGCACC	-0.206
GATCACCC	-0.117
CTGCGAGA	-0.279
ACCTACTG	-0.0357
ACAATTCA	0.144
ACACCTGC	0.0372
ATGTATTC	-0.00339

Sequence	PBM E-score
TCCTGTAA	0.131
ACGTACTG	0.00544
CCCGGGCG	-0.213
CACGTAGG	-0.205
CGGAATTC	0.0496
CTTATTAC	0.115
ACCGTGCC	-0.249
CGCAGTGC	-0.128
TCAACAGA	0.225
ACGTATCG	0.127
AGCGAGAA	-0.121
ACGTGCTC	-0.184
ATACTAAC	0.123
ACGGCTCA	-0.0255
CAGAAGCA	0.111
GACAACAA	0.203
AGCGGAAG	-0.00882
AGTGAAGA	-0.00202
GAGTGCAC	-0.161
AATTTTCC	0.468
AGAGATAT	0.11
GGGAGCCC	-0.317
AGCCATGA	-0.16
AACATTTA	0.296
CAGATTAG	-0.134

Sequence	PBM E-score
TAACTTCA	0.235
CTGTTGTA	0.086
AAAGAACA	0.241
CCTATAAA	-0.11
CGGGAAAA	0.298
GCCGGCGA	-0.274
CCAGTGCC	-0.182
ATTTTGCA	0.191
AGCCGTAT	0.0812
GACCGGCC	-0.317
AATCAAAA	0.225
CCGCGCAC	-0.0688
GAGGCAGA	-0.174
ACGTAGTC	-0.17
CCCGCCGG	-0.223
CAATTAAC	0.224
ACGCAGCC	-0.0524
AAAAGCCG	-0.0582
AAATTAGT	0.206
GTTCCGCA	0.114
AGGTGGAC	-0.104
GAACGGTA	-0.0164
AATTGGCA	-0.0873
AGGGGTTC	-0.244
ATCTTGAC	0.0394

Sequence	PBM E-score
CCAGTACA	0.112
CGTGAATC	-0.132
GGTCCAGA	-0.216
ACGATGCG	-0.103
AAGTAGAT	0.24
CGCTCACG	-0.108
ACGTGAAT	-0.0299
ACTGCCTG	0.0181
AACGTACG	0.0287
GCGGCTAC	-0.266
CGTCTACC	-0.101
CGTTTTCA	0.0232
GTGTTCGA	-0.084
AAACGTCC	-0.117
ATAAAATA	0.344
CCGCCCCG	-0.0589
GATTGGGA	-0.181
CTCATACC	0.058
GATGTCGC	-0.152
CTGGTGGC	-0.13
CGCTAGTA	0.0929
ACTTCTTG	-0.00264
GCTTCACA	0.0152
AATCTCAG	-0.153
GCGAGCAC	-0.0952

Sequence	PBM E-score
GCTCAAAC	0.0775
ATTATGAA	0.238
AGTCGCAT	0.107
CCTCACAG	-0.0245
GTTTGGTA	0.139
AGTTCACC	0.0995
GAGGCCAC	-0.211
CGTGATAA	0.0584
ATTCTTCG	-0.0459
AAAGCCTT	-0.196
CTGCATAA	0.163
CAATGATA	0.126
AGGCCACA	-0.287
GTGGCCCA	-0.222
AGGTAATA	0.11
ATCCCTCG	0.00369
CCGCGGCG	-0.0142
CCAGTGAA	-0.163
GACGCCTA	-0.138
CTGATCGA	-0.0424
AATACAGC	0.129
CAAAAGCC	-0.028
CGATTGTC	-0.0186
TCCCCAAA	-0.0361
AGGTCGTG	-0.00834

Sequence	PBM E-score
GAAGGTAC	-0.0788
ACTTCATC	0.182
CACGCTGA	-0.142
CAGCGCAG	-0.153
AAGACTCG	-0.0267
CAAGACCC	-0.312
AAATTGTG	-0.0257
AAGGCTGA	-0.156
AAGAACAC	0.171
AGCACAAC	0.0229
CTGGTTTC	-0.00275
ACCGAACT	-0.101
TCAATGGA	0.0701
GAGAACCC	-0.108
GGTCGTGA	-0.14
ATACTTTG	0.297
AATTATCT	0.264
AGATGCAG	0.0243
CTCTTATA	0.128
CAGTGCAC	-0.0919
GACCCCAC	-0.137
AAAAACAC	0.232
ACCTGACC	-0.106
AGTGTGCA	-0.0438
ACGTTGAT	0.222

Sequence	PBM E-score
CTGGCGGC	-0.265
CAAGACGA	-0.0274
GTAGCGTA	-0.104
ATTCGATG	0.0894
ATCGCTCA	0.0367
ACAGCCCA	-0.0773
ATTTGAGC	0.117
CATAGGTA	0.0147
ATGACATA	0.194
CGATGCAA	-0.0664
CCGACCGG	-0.0908
AGAAATCA	0.232
CCCCTAGA	-0.153
CCACACAC	0.0262
CTCCGGAC	-0.0672
AACGCGCG	0.075
GGCAGCGA	-0.224
GGGATACA	-0.143
ATGGAAAT	0.175

From the supplement of paper PMC3334620
